This series has as its system ATP. Put plainly: switch fluorescence ratio, 500 uM ATP over buffer (Cy3 cluster intensity, sum of 5 cycles each) (fold (ratio)); higher = stronger signal-on switching upon ATP binding; sequences stand for … in TCGTCGGCAGCGTCAGATGTGTATAAGAGACAGTTTTTTTTTTTTTTTTTTTTTTTTT…TC. To be noted: aptamer strand: ATP DNA aptamer (quencher-CACCTGGGGGAGTATTGCGGAGGAAGG + anchor), 100 nM annealed; ATP concentration: 500 uM; one replicate. The gist of the method: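 Between each of five buffer/ATP cycles, the flow-cell was stripped with NaOH and re-annealed. Each cycle imaged Cy3-labelled switching-strand clusters, annealed to 100 nM quencher-labelled ATP aptamer on a modified Illumina MiSeq flow-cell, first in selection buffer and then after 15 min with 500 uM ATP at 22 °C. The fluorescence ratio is summed target-cycle over summed buffer-cycle Cy3 intensity per cluster, averaged per switch-domain sequence, with clusters outside 100-1000 RFU excluded.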

From the supplement of paper PMC10126150 come the findings set out here.

Values marked as one replicate rest on one cluster of the flow cell; about a third of the high ones do not repeat.
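Also: ATP exposure 15 min at 22 °C before imaging.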

As for ATTTATACAT, the switch fluorescence ratio was 1.02.

AATAACTGAT: the switch fluorescence ratio is 0.999.

TAGACCAAGC: the switch fluorescence ratio worked out at 1.04.

In the case of GTCTAAATCT, the switch fluorescence ratio turned out to be 1.05.

In the case of GTAGTTTCTG, the switch fluorescence ratio amounted to 1.01.

As for ACGAATTGAG, the switch fluorescence ratio worked out at 0.986.

As to CTTTTTTATG, the switch fluorescence ratio came to 1.01.

On to AGACTCTCCA, for which the switch fluorescence ratio was found to be 1.02.

Consider GCAGCGTTGT, for which the switch fluorescence ratio turned out to be 1.02.

Turning to GTACCGATTC, the switch fluorescence ratio was 1.11.

As for ACCTGGTATT, the switch fluorescence ratio was determined as 1.03.

Turning to CGTTGAAAGG, the switch fluorescence ratio was determined as 1.03.

Regarding CTAGCGGCGC, the switch fluorescence ratio is 0.93.

CTGAAAGATG: the switch fluorescence ratio was 0.965.

Take AGGGTGGAGA: the switch fluorescence ratio was determined as 1.01.

On to CCTATGGCCA, for which the switch fluorescence ratio is 1.02.

Consider TCGCTATCTG, for which the switch fluorescence ratio worked out at 1.04.

As for CTCAAATAGC, the switch fluorescence ratio came out at 1.26.

As for ACTGAAGCGC, the switch fluorescence ratio worked out at 1.06.

As for CAGGTGGAAA, the switch fluorescence ratio came out at 1.04.

As for CTGCGTGAGT, the switch fluorescence ratio was 0.989.

TCGAGGCCGG: the switch fluorescence ratio was 1.05.

As for CGTTGCGTCG, the switch fluorescence ratio came to 1.01.

In the case of GCCAACGCGT, the switch fluorescence ratio came out at 0.998.

In the case of GAAAGAATGT, the switch fluorescence ratio worked out at 0.994.

With CCTTTACGCC, the switch fluorescence ratio stood at 1.61.

Take CTGAACTACT: the switch fluorescence ratio stood at 1.06.

With CGAATATGGG, the switch fluorescence ratio came to 0.964.

With TATCTGAAGC, the switch fluorescence ratio came out at 0.954.

For the sequence CTCCCAGAGT, the switch fluorescence ratio was found to be 1.33.

Consider CTAGGGTCGC, for which the switch fluorescence ratio was determined as 0.968.

Take TTACAGGCTC: the switch fluorescence ratio worked out at 1.03.

As for CGCACTTACT, the switch fluorescence ratio came to 3.86.

For the sequence TGAATGAT, the switch fluorescence ratio stood at 1.01.

With ACAGAAATCG, the switch fluorescence ratio is 1.03.

In the case of GTTGGGGTCC, the switch fluorescence ratio is 1.03.

As for TACGGGTCTT, the switch fluorescence ratio turned out to be 1.01.

Turning to AGCGATTGCG, the switch fluorescence ratio came to 1.05.

On to TGAACTTTAG, for which the switch fluorescence ratio was found to be 1.05.

GACAGTACCT: the switch fluorescence ratio was 1.49.

Turning to TTCGCGCGAG, the switch fluorescence ratio is 1.04.

On to TGGGGCCGAA, for which the switch fluorescence ratio stood at 1.

CTCGAGTGAT: the switch fluorescence ratio was 1.08.

Regarding CATATATAGT, the switch fluorescence ratio worked out at 1.05.

For the sequence ATGACAATA, the switch fluorescence ratio was found to be 0.963.

For the sequence ACAGACGCCA, the switch fluorescence ratio was 1.24.

As to AAGTCCCCCG, the switch fluorescence ratio worked out at 1.11.

On to ATTCAGCGAG, for which the switch fluorescence ratio came to 0.966.

As to AGGGACCTTT, the switch fluorescence ratio turned out to be 0.988.

Take GAGAACGATG: the switch fluorescence ratio worked out at 0.982.

On to AGTAAATAGG, for which the switch fluorescence ratio is 0.965.

Turning to TCCCTGCAGC, the switch fluorescence ratio worked out at 1.17.

For the sequence TCTGATAACG, the switch fluorescence ratio is 1.03.

Turning to GACGAACCAA, the switch fluorescence ratio turned out to be 2.36.

Regarding ACCGGATTGG, the switch fluorescence ratio is 1.04.

For the sequence AGTTTATACG, the switch fluorescence ratio turned out to be 1.01.

As to GTGAAAATAA, the switch fluorescence ratio amounted to 0.989.

As to ACAGCCTGCA, the switch fluorescence ratio worked out at 1.

TCCAAGAGAT: the switch fluorescence ratio turned out to be 1.03.

With GCTGATGGTA, the switch fluorescence ratio was 1.05.

Regarding CAGCCTAGTC, the switch fluorescence ratio was 1.07.

Turning to GAAGCGCGA, the switch fluorescence ratio amounted to 1.09.

With TTTGGTCTCG, the switch fluorescence ratio was determined as 0.996.

Take ATTTGCTTT: the switch fluorescence ratio was found to be 0.919.

For the sequence TCACCAAATC, the switch fluorescence ratio came out at 1.03.

With TTCGACGTGT, the switch fluorescence ratio amounted to 0.984.

As for CATCGGGAGA, the switch fluorescence ratio amounted to 0.967.

TCTACCCGAG: the switch fluorescence ratio is 1.02.

Turning to TAAGAGTGGG, the switch fluorescence ratio turned out to be 0.965.

On to TCAGTTAAGT, for which the switch fluorescence ratio was 0.977.

As to AAAAGAAATT, the switch fluorescence ratio came to 1.04.

On to CGTTTAACTT, for which the switch fluorescence ratio turned out to be 1.01.

On to TTCCGGATCT, for which the switch fluorescence ratio is 1.14.

TTACGTGGCC: the switch fluorescence ratio amounted to 1.01.

In the case of GAGGTGGGG, the switch fluorescence ratio was determined as 1.02.

Regarding GACATACATC, the switch fluorescence ratio came out at 1.27.

As for CGTACGATTT, the switch fluorescence ratio came out at 1.04.

Consider GGCCAAACCG, for which the switch fluorescence ratio came to 1.02.

In the case of CTAGTGATA, the switch fluorescence ratio was 1.17.

On to TGCTATATAG, for which the switch fluorescence ratio is 0.991.

For TGAAGTTGTG, the switch fluorescence ratio was determined as 0.98.

For the sequence TTTAACCATT, the switch fluorescence ratio is 0.999.

For TTTGGGTGCC, the switch fluorescence ratio was determined as 0.98.

Regarding AGACCCACCC, the switch fluorescence ratio amounted to 1.54.

As to AGGGCGGCCG, the switch fluorescence ratio was 0.959.

With AGGAGCTTTG, the switch fluorescence ratio turned out to be 1.02.

Consider AGCTCGAAGT, for which the switch fluorescence ratio worked out at 1.

In the case of AAAAGTCTT, the switch fluorescence ratio was 0.975.

For the sequence TATCCCTGCA, the switch fluorescence ratio was determined as 1.12.

TGCTGGCCCA: the switch fluorescence ratio amounted to 1.09.

With GACTGCTTT, the switch fluorescence ratio worked out at 0.981.

Take CGCGGGCCAG: the switch fluorescence ratio was 0.99.

As to GTGTAGTGAC, the switch fluorescence ratio worked out at 1.03.

For the sequence CCGCACCCAA, the switch fluorescence ratio amounted to 3.08.

Regarding ATGGTCAATG, the switch fluorescence ratio came to 0.98.

As for TACAATAATC, the switch fluorescence ratio was 1.04.

For GTTGCTG, the switch fluorescence ratio is 1.05.

As for GGTAAACATG, the switch fluorescence ratio worked out at 1.04.

As for AGGGAAGCGC, the switch fluorescence ratio came to 0.967.

CAATTGACGA: the switch fluorescence ratio was 1.02.

Turning to GGCCTACGTT, the switch fluorescence ratio stood at 0.961.

Regarding AGAAATACTG, the switch fluorescence ratio was 1.23.

ATACGTAGCT: the switch fluorescence ratio was determined as 1.12.

With GAGGGCATAG, the switch fluorescence ratio was 0.997.

As to CATGACCGTA, the switch fluorescence ratio came out at 1.1.

Consider TATATAGCTT, for which the switch fluorescence ratio worked out at 1.09.

Take TCGTAATTTT: the switch fluorescence ratio worked out at 0.947.

With TGAACTTAAG, the switch fluorescence ratio was determined as 1.02.

Turning to AGAGTATGTG, the switch fluorescence ratio turned out to be 0.953.

Turning to CCCTTGCAAC, the switch fluorescence ratio was 3.74.

Consider GTTAATCGGA, for which the switch fluorescence ratio is 0.993.

As for ATATGGGCTC, the switch fluorescence ratio came out at 0.97.

Turning to TTTGATTATC, the switch fluorescence ratio is 0.972.

In the case of GTAACAACAA, the switch fluorescence ratio stood at 0.974.

In the case of TTATTGTCAT, the switch fluorescence ratio worked out at 1.05.

As to TCGATGATA, the switch fluorescence ratio came to 0.979.

For TAATTCCTTA, the switch fluorescence ratio came out at 0.952.

Turning to AACACGGGGG, the switch fluorescence ratio is 1.

On to TCGGGACTGG, for which the switch fluorescence ratio is 1.07.

CCGGGCAACT: the switch fluorescence ratio was found to be 4.37.
